Reference: PubChem BioAssay AID493208 (National Center for Advancing Translational Sciences (NCATS), 2011)
About 340 (0.77%) of roughly 44,000 compounds were called active. Roughly 5% stayed inconclusive and do not appear here. Calls follow the shape of the dose curve; as a rule, active = well fitted inhibition curve with a large enough effect; inconclusive = small, poorly fitted or top-dose-only effect; inactive = flat fitted curve, though single readings scatter. The list shows a part of the results.

Experiment: Acumen qHTS Assay for Inhibitors of the mTORC1 Signaling Pathway in MEF (Tsc2-/-, p53-/-) Cells: Sytravon;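 also: plate controls were DMSO for no effect and rapamycin for full effect; nearly all actives have a fitted effect of over 50% in size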
Conditions: phospho-rpS6 immunofluorescence/PI, 24 h; series mostly up to 38.3 µM; activity change, negative = inhibition: at the top concentration
In short: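 Plate MEFs (Tsc2-/-, p53-/-, empty vector) in DMEM/10% FBS; after 24 h add compound, incubate 24 h at 37 degree Celsius; fix in PFA/TX-100, block, stain phospho-rpS6 and 10 uM PI; scan at 488 nm; report % positive cells.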

Activity change, negative = inhibition, inactive:
Cc1c(CNC(C)CCc2ccccc2)c(C(=O)O)c(C)n1Cc1ccc(F)cc1Cl (stereo unspecified) -7.71%, O=C(c1ccccc1Cl)n1nc(-c2cccnc2)nc1NCc1ccc(F)cc1 -6.4%, CCCCOc1ccc(C(=O)N(Cc2ccc(C(C)C)cc2)C2CCS(=O)(=O)C2)cc1 (stereo unspecified) -0.31%, COC(=O)c1scc(-c2ccccc2)c1S(=O)(=O)Nc1cccc(C)c1C -4.38%, COc1ccc(N2CCN(C3=NS(=O)(=O)C(c4cccc(Br)c4)=C3C)CC2)cc1 -0.168%, Cc1cc(C)c(NC(=O)CCc2c(C)nc3c(c(C)nn3C(C)(C)C)c2C)c(C)c1 -9.53%, CCOC(=O)c1ccc(NC(=O)CCc2c(C)nc3nc[nH]n3c2=O)cc1 0.608%, COC(=O)c1cc2sc(C)cc2n1Cc1ccc(Br)cc1F -0.466%, COc1ccc(C2=NN(CC(=O)NCCCN(C)c3ccccc3)C(=O)CC2)cc1 -9.23%, COCCNC(=O)C(=O)NCC(c1cccnc1)N1CCN(c2ccccc2F)CC1 (stereo unspecified) -3.78%, Cc1ccc2oc3c(c(=O)c2c1)C(c1ccc(F)cc1)N(c1nc(C)c(C)s1)C3=O (stereo unspecified) -16.1%, COc1ccc(C2CC(=O)Nc3c2c(=O)[nH]c2nc4ccccc4n32)cc1OC (stereo unspecified) 4.49%, COc1ccc(NC(=O)c2nc3nc(C)cc(C(F)F)n3n2)c(C)c1 -6.84%, CCOC(=O)c1ccc(NC(=O)CC2C(=O)N(c3ccc(F)cc3)C(=O)N2Cc2ccc3c(c2)OCO3)cc1 (stereo unspecified) -18.3%, Cc1ccc(C)c(NS(=O)(=O)c2cc3c(cc2Cl)NC(=O)CO3)c1 -2.13%, CCOC(=O)c1cccc(NC(=O)C2CCN(S(=O)(=O)c3cn(C)cn3)CC2)c1 0%, CC(C)(C)OC(=O)N1CCC(c2c(C(=O)NCCN3CCC(Cc4ccccc4)CC3)cnn2-c2ccccc2)CC1 0%, CCc1ccc(NC(=O)N2CC(C)Oc3ccc(C)cc32)cc1 (stereo unspecified) 0%, COCCCNc1ncnc2c1cnn2-c1ccc(F)cc1 -21.2%, CCCn1c(NCc2ccccc2C)nc2ccccc21 -0.938%, COc1ccc(-n2cc(-c3ccccc3)nc2SCC(=O)Nc2ccccc2)cc1Cl 1.28%, CCc1ccc(S(=O)(=O)c2nnn3c2nc(N2CCCC2)c2sccc23)cc1 1.07%, Cc1nn(-c2ccc(N3CCCCC3)nn2)c(C)c1CCC(=O)NCc1ccccc1F -18.7%, CN1C(=O)Cc2cc(S(=O)(=O)CCC(=O)N3CCN(c4ccccc4F)CC3)ccc21 -0.48%, COc1ccc(NC(=O)COCc2cc(-c3cccs3)on2)cc1 -0.781%, Cc1ccccc1C1C=C(c2ccc(Cl)cc2)Nc2nnnn21 (stereo unspecified) -1%, CCOC(=O)c1ccc(NC(=O)Cn2cnc(S(=O)(=O)N3CCCC3)c2)cc1 0%, COc1ccc(-n2nc3c(N4CCCC(C(=O)NCCc5ccc(C)cc5)C4)nnc(C)c3c2C)cc1 (stereo unspecified) -12%, COc1ccc(-c2cc(C(F)(F)F)n3nc(C(=O)Nc4cccc(Cl)c4C)cc3n2)cc1 11.5%, CCOc1ccc(OCC)c(NC(=O)CCc2c(C)nc3c(c2C)c(=O)n(C)c(=O)n3C)c1 -10.6%, O=C(c1ccc2c(c1)N(Cc1ccccc1)C(=O)c1ccccc1S2(=O)=O)N1CCN(c2ccccn2)CC1 2.37%, CCSc1ncc(Cl)c(C(=O)Nc2c(C(=O)Nc3ccc(Cl)cc3)oc3ccccc23)n1 3.3%, CCOc1ccccc1CNC(=O)c1cc(-c2ccc(OC)cc2)nc2ccc(C(C)C)cc12 -1.4%, COc1cc(C2c3c(oc4ccccc4c3=O)C(=O)N2c2nnc(C(C)C)s2)cc(OC)c1OC (stereo unspecified) -11.7%, COc1ccc(CNC(=O)c2ccc3c(c2)nc2n3CCCCC2)c(OC)c1 18.8%, CCOC(=O)c1cccc(NS(=O)(=O)c2cn(C)c(C)n2)c1 -8.72%, COc1ccc(/C=C/c2noc(-c3ccccc3O)n2)cc1OC 0.607%, Cc1ccc(Cn2ccn(Cc3ccccc3C)c(=O)c2=O)cc1 -14.9%, COC(=O)c1ccccc1NC(=O)Cn1c(=O)n(-c2ccc(Cl)cc2)c(=O)c2c(C)c(C)sc21 0.637%, COc1cccc(-c2cc(C(=O)Nc3ccc(C)cc3)[nH]n2)c1 3.23%, Cc1cc(C)n(-c2nc3ccccc3nc2Nc2cc(C(=O)O)ccc2C)n1 -1.17%, Cc1cc(C)cc(-n2nnc(-c3nc(-c4ccccc4F)no3)c2C)c1 -0.896%, Cc1ccc(CN2CCN(CC(=O)NCc3ccccc3Cl)C2=O)cc1 -1.35%, Cc1ccc(NC(=O)C(=O)NCC(c2cccnc2)N2CCc3ccccc32)cc1Cl (stereo unspecified) -9.61%, COc1ccc(S(=O)(=O)N(CC(=O)NCc2ccc(C)cc2)c2ccc(Cl)cc2)cc1 -3.31%, CCOc1ccccc1NC(=O)CN1C(=O)C2(SCC(=O)N2c2cccc(F)c2)c2ccccc21 (stereo unspecified) 2.8%, Cc1c(Cl)cccc1NC(=O)CCn1nc(C)c2c(C)n(-c3ccccc3)nc2c1=O 0.469%, CCOc1ccc(C(=O)N2CCCCC2CCN2CCOCC2)cc1 (stereo unspecified) 2.26%, COc1ccc(NC(=O)c2sc3nc(C)c(C(=O)Nc4ccc(Cl)cc4)c(-c4ccc(Br)cc4)c3c2N)cc1 -4.47%, COC(=O)c1ccccc1NC(=O)Cn1nnc2sc(-c3ccccc3)cc2c1=O -0.237%, CCc1ccc(-c2nn(CC(=O)NC3CCCC3)c3c2cnc2ccc(F)cc23)cc1 0.453%, CCOc1ccccc1NC(=O)NCCn1c(=O)oc2ccc(C)cc21 -0.787%, COc1ccc(-c2nc(-c3ccccc3)c(-c3ccc(O)cc3)[nH]2)cc1 -14.2%, COc1ccccc1C(=O)NCCn1cc(SCc2ccccc2Cl)c2ccccc21 -0.872%, O=C(/C=C/c1ccc(F)cc1)Nc1nc2n(n1)C(c1ccc(Cl)cc1)C=C(c1ccccc1)N2 (stereo unspecified) -2.6%, COc1ccc(OC)c(CNC(=O)CCn2c(=O)c3cccn3c3ccc(F)cc32)c1 6.98%, Cc1ccc2sc(N3CCN(C(=O)CCS(=O)(=O)c4ccc(F)cc4)CC3)nc2c1C -7.13%, Cc1noc(/C=C/c2ccco2)c1S(=O)(=O)N1CCC(C(=O)Nc2ccc(F)c(Cl)c2)CC1 -11%, COc1ccc(-n2ncc3c(NCCC4=CCCCC4)ncnc32)cc1 8.14%, Cc1ccccc1-c1nc(CS(=O)(=O)CC(=O)NCc2cccc(Cl)c2)c(C)o1 -9.1%, CCC1=Nc2cc(C(=O)NC3CCCC3)ccc2Sc2ccc(Br)cc21 -25.8%
